Over roughly 110,000 compounds, “z-score” has its median near -0.1; the highest 2% begin near 2. The list shows a part of the results. Active and inactive are the calls of the source.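 How the source made its calls: active means z-score in the third read window above 3 or below -3; inactive means the rest.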
Biological target: Metabotropic glutamate receptor 8 (Rattus norvegicus) (UniProt P70579)
Experiment: rat mGluR8 modulators via GIRK flux, primary screen, cell-based, thallium flux, HTS (AID 488969)
Conditions: HEK293 rat mGluR8, GIRK (G protein-gated inwardly rectifying potassium channel) thallium flux, FluoZin2; at 10 µM; stronger effect = higher value

Sequence of UniProt P70579 (P70579 whole entry, looked up): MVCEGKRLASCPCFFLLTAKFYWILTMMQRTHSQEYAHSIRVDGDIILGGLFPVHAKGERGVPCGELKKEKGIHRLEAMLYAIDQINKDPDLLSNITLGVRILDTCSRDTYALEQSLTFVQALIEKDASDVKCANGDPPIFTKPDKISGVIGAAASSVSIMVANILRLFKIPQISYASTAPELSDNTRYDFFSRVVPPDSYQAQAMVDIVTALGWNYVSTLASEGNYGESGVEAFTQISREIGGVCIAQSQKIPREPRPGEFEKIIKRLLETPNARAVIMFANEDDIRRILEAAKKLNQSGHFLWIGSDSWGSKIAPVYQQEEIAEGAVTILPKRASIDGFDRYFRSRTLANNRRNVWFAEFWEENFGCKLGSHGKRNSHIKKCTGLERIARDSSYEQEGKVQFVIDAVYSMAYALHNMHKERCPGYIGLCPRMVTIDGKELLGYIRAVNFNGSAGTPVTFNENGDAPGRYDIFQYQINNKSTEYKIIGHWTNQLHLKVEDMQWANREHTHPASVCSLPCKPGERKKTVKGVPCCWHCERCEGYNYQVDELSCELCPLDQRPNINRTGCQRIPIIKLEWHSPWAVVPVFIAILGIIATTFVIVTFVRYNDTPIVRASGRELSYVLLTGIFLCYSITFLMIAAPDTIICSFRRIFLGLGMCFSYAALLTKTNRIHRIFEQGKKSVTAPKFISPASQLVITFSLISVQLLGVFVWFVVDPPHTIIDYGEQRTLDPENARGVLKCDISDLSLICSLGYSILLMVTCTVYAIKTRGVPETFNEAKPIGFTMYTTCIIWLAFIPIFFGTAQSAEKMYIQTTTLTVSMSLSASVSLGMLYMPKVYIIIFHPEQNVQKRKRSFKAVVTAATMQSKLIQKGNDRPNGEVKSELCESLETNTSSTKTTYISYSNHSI

Compound | z-score
O=C(N/N=C/c1c(O)n(CCc2ccccc2)c(=O)[nH]c1=O)c1ccncc1 | 0.402
CC(c1ccccc1)n1cncc1C(=O)N1CCCC1=O (stereo not given) | -0.104
O=C1NC(=S)N(C2CC2)C(=O)/C1=C/c1ccc2c(c1)CCN2CCCCl | -0.658
CC(=NCCCO)c1c(O)n(Cc2ccccc2)c(=O)[nH]c1=O | 0.473
Cn1c(O)c(/C=C/C=Nc2ccccc2)c(=O)n(C)c1=O | -0.542
COc1ccc(P2(=O)Nc3ccccc3N2)cc1 | -0.253
Cc1ccc2nc(-c3ccncc3)cc(C(=O)N3CCC4(CC3)OCCO4)c2c1 | 0.433
Fc1cccc(CCNCc2ccccn2)c1 | -0.603
Cc1ccc(CCN2CC(C(=O)N3CCC4(CC3)OCCO4)CC2=O)cc1 (stereo not given) | 0.645
CC(=O)c1c(C)n(CC2CCCO2)c2ccc(O)cc12 (stereo not given) | -0.37
Cn1c(O)c(/C=C/C=Nc2ccccc2)c(=O)n(C)c1=S | -0.58
Cn1c(O)c(C(=O)c2ccccc2)c(=O)n(C)c1=O | -0.463
O=C(CNC(=O)c1ccc(Br)cc1)Nc1ccc(Br)cc1C(=O)c1ccccc1 | -0.0287
CC(Cc1ccccc1)NC(=O)NC(C)Cc1ccccc1 (stereo not given) | -0.082
Cc1ccc(-n2c(/C=C/c3ccc4c(c3)OCO4)nc3ccccc3c2=O)cc1 | -0.143
Fc1ccc(CCNCc2cccc(Cl)c2)cc1 | -0.0585
O=c1[nH]c(=O)n(-c2ccc(F)cc2)c(O)c1C=Nc1ccccc1N1CCCC1 | 1.65
O=c1[nH]c(=S)n(C2CC2)c(O)c1/C=N/Nc1ccccc1 | -0.162
COc1ccccc1N1CCN(Cc2cccc(OC)c2O)CC1 | 0.664
CN(C)c1ccc(/C=C2\CC3C4CC=C5CC(O)CCC5(C)C4CCC3(C)C2=O)cc1 (stereo not given) | -0.0238
O=C(CCCOc1ccc(Cl)cc1Cl)N1CCC2(CC1)OCCO2 | -0.438
CN1C(=O)N(C)C(=O)C2(Cc3ccccc3N3CCOCC32)C1=O (stereo not given) | -0.0123
CNC(=S)N/N=C1\C2CN3CCN(C2)CC1(c1ccccc1)C3 | -0.184

Compound | z-score
Cc1ccc2c(c1)C1CN(C)CCC1N2C(=O)COc1ccc(S(=O)(=O)N2CCOCC2)cc1 (stereo not given) | -1.68
Cc1ccccc1NC1=NCCCS1 | 0.604
COc1cccc(-n2c(-c3ccoc3)nc3ccccc3c2=O)c1 | -0.34
O=P(Nc1ccccc1)(Nc1ccccc1)Oc1cccc(Cl)c1 | 0.175
Oc1ccc(Cl)cc1CN1CCN(Cc2ccccc2)CC1 | -0.13
CN(C)C(=O)Oc1ccc(C(=O)c2ccccc2)cc1 | 0.679
Cc1cc(Cl)ccc1OCC(=O)O | -0.104
COC(=O)c1cc(C(O)(C(=O)OC)C(F)(F)F)c(/N=C/N(C)C)s1 (stereo not given) | -0.0518
CCc1nc2ccc(Br)cc2c(=O)n1-c1ccccc1C(F)(F)F | -0.44
CCOC(=O)c1c(NC(=O)C(c2ccccc2)c2ccccc2)sc2c1C1CCN2CC1 | -0.566
CCC(C(=O)N1CCC2(CC1)OCCO2)c1ccccc1 (stereo not given) | 0.0844
O=C(CCN1C(=O)COc2ccccc21)N1CCC2(CC1)OCCO2 | 0.403
Cc1cc(/C=C2/C(=O)NC(=O)N(Cc3ccco3)C2=O)c(C)n1-c1ccccc1 | 1.04
N#Cc1cc2c(nc1SCC(=O)Nc1cc(Cl)cc(Cl)c1)C1CCN2CC1 | 0.112
CCCCN1C(=O)/C(=C/c2ccc(N(C)C)cc2)C(=O)N(Cc2ccco2)C1=O | 0.62
CC(C)NCC(O)c1ccc(C2CCCC2)cc1 (stereo not given) | 0.639
COc1cc(-n2c(=S)[nH]c3ccccc3c2=O)c(Cl)cc1Cl | active: 6.65
CC(=O)Nc1ccccc1OP1(=O)COc2ccccc2OC1 | 0.706
CCc1ccc(/C=C(/C#N)C(N)=S)cc1 | 0.959
Cc1cccc(C)c1OP(N)(=O)OCC(F)(F)F (stereo not given) | -0.0205
CN1Cc2cccnc2N(C)Cc2cc(Cl)ccc21 | -0.242
CNCCCc1ccccc1 | 0.132
O=C(NCc1ccccn1)c1ccccc1Cl | 0.931

Compound | z-score
c1cncc(C2CCCCN2Cc2ccc3c(c2)OCO3)c1 (stereo not given) | 0.00396
CC(C)CC12CN3CCN(CC(C3)/C1=N/O)C2 | -0.566
O=C(NCC(c1cccnc1)N1CCN(c2ccc(F)cc2)CC1)Oc1ccccc1 (stereo not given) | 0.0787
CCN1CCN(c2nc3c(c(=O)[nH]2)CCCC3)CC1 | -0.0782
Cc1ccc(-c2nc3ccccc3c(=O)n2-n2cccc2)cc1 | 0.816
O=C(Nc1ccc(OC(=O)N2CCCC2)cc1)N1CCOCC1 | 0.945
Clc1ccc(N2CCN(Cc3ccccc3Cl)CC2)cc1 | -0.265
O=c1[nH]c(=S)n(Cc2ccc(F)cc2)c(O)c1/C=N/N1CCCCCC1 | 0.0471
CCC(=Nc1ccc(OC)cc1OC)c1c(O)[nH]c(=O)[nH]c1=O | 0.301
O=C(Cn1ncc2c3ccccc3n(Cc3ccc(F)cc3)c2c1=O)N1CCC2(CC1)OCCO2 | -0.798
O=C(O)c1nonc1-c1nonc1C(=O)O | 0.86
O=c1[nH]c(=S)n(Cc2ccc(F)cc2)c(O)c1C=NCc1cccnc1 | -0.728
COc1ccc(-c2cc(=Nc3ccccc3)c3cc(C)ccc3o2)cc1 | -0.277
CCCCn1c(O)c(C=NC2CCCCC2N)c(=O)[nH]c1=O (stereo not given) | 0.0998
O=C(CNC(=O)OCc1ccccc1)NCC(=O)Nc1ccc(Br)cc1C(=O)c1ccccc1 | -0.837
Fc1ccccc1CCNCc1cccc2ccccc12 | 0.467
OC(Cn1c2ccccc2c2ccccc21)C[n+]1cccc2ccccc21 (stereo not given) | 1.62
CCOc1cc(C(=O)N2CCC3(CC2)OCCO3)cc(OCC)c1OCC | -0.0479
Cc1ccc2c(c1)[C@@H]1CN(C)CC[C@@H]1N2C(=O)Nc1cccc(C(F)(F)F)c1 | 1.07
CCCc1[nH]nc2c1C1(C(=O)N(Cc3ccccc3)c3ccccc31)C(C(=O)OC)=C(N)O2 (stereo not given) | 0.288
C=CCn1c(O)c(/C=N/N2CCCCC2c2cccnc2)c(=O)[nH]c1=S (stereo not given) | -0.317
O=C1CC(C(=O)N2CCC3(CC2)OCCO3)CN1CCc1ccccc1 (stereo not given) | 1.1
O=C(Cc1ccccc1)N1CCN(CC2CC3C=CC2C3)CC1 (stereo not given) | -0.448

Compound | z-score
CC(C)C12CN3CCN(CC(C3)/C1=N\O)C2 | -0.0544
CC(=NCCCN1CCOCC1)c1c(O)n(-c2ccccc2C)c(=O)[nH]c1=O | 0.0995
CC(C)(C)n1cccc1/C=C1\C(=O)NC(=O)N(c2ccccc2)C1=O | -0.117
CC(=NCc1ccc2c(c1)OCO2)c1c(O)[nH]c(=O)[nH]c1=O | -0.135
CCOc1cc(C2C(C#N)=C(N)Oc3c2c(=O)oc2ccccc32)ccc1OC(=O)c1cccs1 (stereo not given) | -0.147
COc1cccc(CNC2CN3CCC2CC3)c1OC (stereo not given) | -0.0115
CCCC(=O)Nc1cc(C(=O)N2CCC3(CC2)OCCO3)ccc1S(=O)(=O)c1ccc(C)cc1 | -0.0584
Cn1c(O)c(C(=O)c2ccccc2F)c(=O)n(C)c1=O | -0.155
CCOP(=S)(OCC)SCC(=O)NC(C)(CC)C(=O)O (stereo not given) | -1.5
CCN(CC)CCCOC(=O)C(OC)(c1ccccc1)c1ccccc1 | 1.41
COc1ccc(OC)c(NP(=O)(Oc2ccc(Cl)cc2)Oc2ccc(Cl)cc2)c1 | -0.219
CCOCC(=O)NC1CCSC1=O (stereo not given) | 0.651
Cc1ccc(NC2=NCCCS2)c(C)c1C | -0.092
Cc1n[nH]c(C)c1CCN | -0.945
C=CCN1C(=O)/C(=C/c2cc(C)n(-c3cccnc3)c2C)C(=O)NC1=S | -0.585
CC(C)CCn1c(N)c(C(=O)NCc2cccs2)c2nc3ccccc3nc21 | 0.0874
CCOP(=O)(OCC)C(NC(=O)C(C)C)C(Cl)(Cl)Cl (stereo not given) | -0.158
O=C(N/N=C/c1c(O)n(Cc2ccccc2)c(=O)[nH]c1=O)c1ccccc1O | 0.0563
CCOC(=O)c1c(C)n(Cc2ccccc2)c2ccc(OCC(O)Cn3nc(C)cc3C)cc12 (stereo not given) | -0.19
CC(C)Oc1cc(-n2c(=S)[nH]c3ccccc3c2=O)c(Cl)cc1Cl | active: 12.9
O=C(COC(=O)Cc1ccccc1)Nc1ccc(SC(F)F)cc1 | -0.37
COc1ccc(OCC(=O)N2CCN(Cc3nc4cc([N+](=O)[O-])ccc4n3C)CC2)cc1 | -1.38
CC(C)(C)NC(=O)Cn1cc(C(=O)c2ccccc2F)c2ccccc21 | -0.254

Compound | z-score
CN(C)CP(=O)(Nc1ccccc1)N(C)C (stereo not given) | -0.0768
CCC(=NCc1ccc(F)cc1)c1c(O)n(C)c(=O)n(C)c1=O | -0.274
CP(C)(=O)CCC(=O)O | 0.753
Cc1ccc(-c2nc3ccccc3c(=O)n2-c2nccs2)cc1 | -0.4
O=c1[nH]c(=O)n(C2CCCCCC2)c(O)c1C=NCCCN1CCOCC1 | 0.0456
O=S(=O)(c1ccccc1)N1CN2CCN(C2)C1 | -0.503
COc1ccc(C(C)=O)cc1CC(C(=O)c1ccc(C)c(C)c1)N(C)C (stereo not given) | -0.208
O=c1[nH]c(=O)n(Cc2ccccc2)c(O)c1C=NCCCO | 0.265
C/C(=N\Nc1ccccc1)c1c(O)n(C)c(=O)n(C)c1=O | active: 3.74
CNP(=S)(NC)OCCOc1ccc(OC)cc1 | -0.215
Nc1ccccc1C(=O)c1ccccc1 | -0.501
COc1cc(C2NCc3ccccc3-n3cccc32)ccc1O (stereo not given) | 1.55
CCOC(=O)C1=C(NC(=S)NC(=O)c2ccccc2)c2ccccc2CC12CCCC2 | 2.46
COCCCN1CCN(c2nnc3n2-c2sc(Br)cc2C(c2ccccc2Cl)=NC3)CC1 | -0.133
Cn1cc(CCC(=O)N2CCC3(CC2)OCCO3)c2ccccc21 | -0.194
CC1CC2(O)c3no[n+]([O-])c3CCC2N1O (stereo not given) | -0.461
CCCC(=O)NC(Oc1ccc(Cl)cc1Cl)C(Cl)(Cl)Cl (stereo not given) | -0.436
CC1CCCC(NC(=O)COC(=O)Cc2ccccc2)C1C (stereo not given) | -0.126
Cc1ccc(S(=O)(=O)N(C)CCCC(=O)N2CCN(c3ccccn3)CC2)cc1 | 0.0438
CC(C)c1ccc(O)c(CN2CCN(c3ccccc3)CC2)c1 | -0.892
CC(NCc1ccc(Cl)cc1Cl)C(O)c1ccccc1 (stereo not given) | -0.0262
CN1CCN(C(=O)COc2ccc(S(=O)(=O)NCc3ccccc3)cc2Cl)CC1 | 0.476
CC(=O)Nc1ccccc1C(=O)OCC(=O)c1ccc2c(c1)OCCO2 | -0.204

— PubChem BioAssay AID488969 (Vanderbilt High Throughput Screening Facility, 2010)
